This note sets out measurements from the supplement of paper PMC6531468.

This is one part of the list. Values come from read counts of a selection and are noisy. Each score is taken over the longer molecules that contain the sequence shown.

In the experiment the test system is IMP3 KH1-2. Briefly: 6-mer SELEX enrichment z-score vs GST control; IMP3 is the RNA-binding protein IGF2BP3; higher = more enriched by binding. Conditions: construct: KH1-2 (164-376); SELEX round: R4. On the procedure: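 SELEX-seq with GST-tagged IMP3 KH1-2 (Pro164-Phe376) and an N40 RNA pool, round 4 (stringent 300/600 mM KCl washes). 6-mer z-score of sequence-tag enrichment normalised to the corresponding GST SELEX round; RNA k-mers written as DNA (T for U).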
Chain of IMP3 KH1-2 (chain, as listed by the source): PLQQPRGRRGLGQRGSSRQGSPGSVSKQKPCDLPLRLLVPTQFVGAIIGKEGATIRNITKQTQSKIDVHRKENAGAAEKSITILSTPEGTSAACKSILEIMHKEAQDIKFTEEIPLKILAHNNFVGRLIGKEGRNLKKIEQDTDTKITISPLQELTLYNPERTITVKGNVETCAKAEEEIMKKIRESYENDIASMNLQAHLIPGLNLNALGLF
Turning to ATGCCA, the “6-mer SELEX enrichment z-score” value is -0.114.

Turning to CAGGAG, the “6-mer SELEX enrichment z-score” value worked out at 0.343.

Consider ACCCGT, for which the “6-mer SELEX enrichment z-score” value was -0.953.

As to ATTATA, the “6-mer SELEX enrichment z-score” value was 1.66.

Turning to CCATGG, the “6-mer SELEX enrichment z-score” value was 0.09.

Turning to TGGGTA, the “6-mer SELEX enrichment z-score” value amounted to 0.021.

On to AGTGCC, for which the “6-mer SELEX enrichment z-score” value is -0.904.

As to TCATCC, the “6-mer SELEX enrichment z-score” value was determined as 0.323.

Take CGAACC: the “6-mer SELEX enrichment z-score” value is -1.93.

Turning to ACCTTT, the “6-mer SELEX enrichment z-score” value is -0.026.

As for GCCTAC, the “6-mer SELEX enrichment z-score” value was -0.524.

GACGGT: the “6-mer SELEX enrichment z-score” value is -0.277.

Turning to CCGTTT, the “6-mer SELEX enrichment z-score” value is -0.084.

Regarding ATCAGC, the “6-mer SELEX enrichment z-score” value was -0.022.

For TCAGTT, the “6-mer SELEX enrichment z-score” value was found to be 0.429.

Consider AGTGTT, for which the “6-mer SELEX enrichment z-score” value was -0.331.

CCCCGA: the “6-mer SELEX enrichment z-score” value is -1.47.

As for AGTATC, the “6-mer SELEX enrichment z-score” value is -0.512.

For the sequence GGTTCG, the “6-mer SELEX enrichment z-score” value is 0.032.

With TAGTGC, the “6-mer SELEX enrichment z-score” value is -0.246.

As to TATTAA, the “6-mer SELEX enrichment z-score” value was found to be 1.22.

In the case of TCACAG, the “6-mer SELEX enrichment z-score” value is 0.484.

Turning to AGTCCC, the “6-mer SELEX enrichment z-score” value is -0.333.

Take TTAGAA: the “6-mer SELEX enrichment z-score” value was determined as 0.38.

Consider CTTTTT, for which the “6-mer SELEX enrichment z-score” value was found to be 0.846.

With CAATCC, the “6-mer SELEX enrichment z-score” value was -0.17.

Consider CTGCAC, for which the “6-mer SELEX enrichment z-score” value is 0.794.

As for CTGAGT, the “6-mer SELEX enrichment z-score” value was -0.401.

Regarding TCCCTC, the “6-mer SELEX enrichment z-score” value is -0.006.

In the case of ATCCAA, the “6-mer SELEX enrichment z-score” value was -1.19.

GTGATT: the “6-mer SELEX enrichment z-score” value worked out at 0.139.

Regarding CTGTAT, the “6-mer SELEX enrichment z-score” value is 0.448.

As to TTATCT, the “6-mer SELEX enrichment z-score” value stood at 0.438.

GCAGAC: the “6-mer SELEX enrichment z-score” value is -0.029.

As for ATACAC, the “6-mer SELEX enrichment z-score” value worked out at 2.8.

Consider GGTACA, for which the “6-mer SELEX enrichment z-score” value was -0.311.

For the sequence TGAAGG, the “6-mer SELEX enrichment z-score” value was 0.3.

With TAGACT, the “6-mer SELEX enrichment z-score” value amounted to 0.004.

For TCGTCG, the “6-mer SELEX enrichment z-score” value was -0.161.

Consider CGCCGG, for which the “6-mer SELEX enrichment z-score” value came to 0.046.
